Measurements: patent US20230279351A1, “ARTIFICIAL ANTIGEN-SPECIFIC IMMUNOREGULATORY T (AIRT) CELLS” (Seattle Children's Hospital (dba Seattle Children's …, priority 2019, published 2023)

Test system: murine CD4+ T cells transduced with lentiviral CISC
Assay: Enrichment of lentiviral CISC (#1272) transduced murine CD4+ T cells
Details: 3 days Rapalog plus additional CD3/CD28 bead stimulation; initial 8.85%
Experimental: FIG. 92 relates to lentiviral CISC constructs used to transduce murine CD4+ T cells and test selective expansion with Rapalog. Panel A depicts a diagram of lentiviral construct #1272. This construct was developed to assess proof-of-concept for enrichment of murine T cells using human CISC components in the presence of Rapalog. […] Panel B depicts a timeline of experimental procedures. […] Cells were evaluated for mCherry by flow cytometry at days 2 and 5 post-transduction.
Panel A depicts flow plots show mCherry expression 2 days following mock or lentiviral transduction (#1272) of murine CD4+ T cells.
An important feature of a human antigen-specific airT platform is the potential to expand airT in vitro and in vivo using, as an example, the IL-2-CISC system. […] Enrichment was greatest (46.1%) when transduced T cells that were concurrently treated with both Rapalog and an additional CD3/CD28 bead stimulation.

CO[C@H]1[C@@H](O)[C@H](C)C[C@H](C)/C=C/C=C/C=C(\C)[C@@H](c2c[nH]c3c(C)cccc23)C[C@@H]2CC[C@@H](C)[C@@](O)(O2)C(=O)C(=O)N2CCCC[C@H]2C(=O)O[C@H]([C@H](C)C[C@@H]2CC[C@@H](O)[C@H](OC)C2)C[C@H](O)[C@H](C)/C=C(\C)[C@H]1O [Rapalog]
mCherry-positive cells (enrichment): 46.1%
